In the supplement of paper PMC12297408:
Counter-ions that a name gives are not always drawn. The whole screen tested about 1,300 compounds, of which about 40 (3%) showed activity. The list shows a part of the results.

Tested on: Plasmodium falciparum NF54/iGP1_RE9H ulg8 stage V gametocytes
Experiment: gametocyte viability (luciferase signal relative to DMSO control) (% of DMSO control); higher = less gametocytocidal activity, active = 50 or less
Conditions: exposure time: 72 h
Summary of the method: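 In 96-well plates holding nanolitre spots of compound (10 mM DMSO stocks), NF54/iGP1_RE9Hulg8 stage V gametocytes from day 12 were added at ~2.5% gametocytemia and 3% hematocrit in medium with 0.5% Albumax II, giving single wells at 10 µM or 1 µM. Incubation lasted 72 h at 37 °C. Each 90 µl sample then received 10 µl D-luciferin (30 mg/ml) before luminescence reading on an IVIS Lumina II, and viability was normalized to the mean of DMSO vehicle wells on the same plate.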

SMILES: CC(CNC1CCCCC1)OC(=O)c1ccccc1 (stereo unspecified) [Hexylcaine hydrochloride]
- gametocyte viability (concentration: 1 µM): inactive: 88.5
- gametocyte viability (concentration: 10 µM): inactive: 80.5

SMILES: Nc1ccc(S(=O)(=O)Nc2nccs2)cc1 [Sulfathiazole]
- gametocyte viability (concentration: 1 µM): inactive: 96.7
- gametocyte viability (concentration: 10 µM): inactive: 91.9

SMILES: Cc1ccc(-c2cc(C(F)(F)F)nn2-c2ccc(S(N)(=O)=O)cc2)cc1 [Celecoxib]
- gametocyte viability (concentration: 1 µM): inactive: 89.4
- gametocyte viability (concentration: 10 µM): inactive: 84.1

SMILES: CC[C@H]1OC(=O)[C@H](C)[C@@H](O[C@H]2C[C@@](C)(OC)[C@@H](O)[C@H](C)O2)[C@H](C)[C@@H](O[C@@H]2O[C@H](C)C[C@H](N(C)C)[C@H]2O)[C@](C)(O)C[C@@H](C)CN(C)[C@H](C)[C@@H](O)[C@]1(C)O [Azithromycin]
- gametocyte viability (concentration: 1 µM): inactive: 85.5
- gametocyte viability (concentration: 10 µM): inactive: 86.7

SMILES: CN[C@H]1CC[C@@H](c2ccc(Cl)c(Cl)c2)c2ccccc21 [Sertraline]
- gametocyte viability (concentration: 1 µM): inactive: 91.9
- gametocyte viability (concentration: 10 µM): inactive: 65.9

SMILES: C[C@]12CC[C@@H]3c4ccc(O)cc4C[C@@H](CCCCCCCCC[S+]([O-])CCCC(F)(F)C(F)(F)F)[C@H]3[C@@H]1CC[C@@H]2O (stereo partly specified) [Fulvestrant]
- gametocyte viability (concentration: 1 µM): inactive: 90.3
- gametocyte viability (concentration: 10 µM): inactive: 84.7

SMILES: CO/N=C(\C(=O)N[C@@H]1C(=O)N2C(C(=O)O)=C(COC(C)=O)CS[C@H]12)c1csc(N)n1 [Cefotaxime sodium salt]
- gametocyte viability (concentration: 1 µM): inactive: 98
- gametocyte viability (concentration: 10 µM): inactive: 99.5

SMILES: CC(C)Oc1ccc2c(=O)c(-c3ccccc3)coc2c1 [Ipriflavone]
- gametocyte viability (concentration: 1 µM): inactive: 81.6
- gametocyte viability (concentration: 10 µM): inactive: 74.6

SMILES: Cc1cc2cc3c(C)cc(=O)oc3c(C)c2o1 [Trioxsalen]
- gametocyte viability (concentration: 1 µM): inactive: 82
- gametocyte viability (concentration: 10 µM): inactive: 88.2

SMILES: CC(=O)Nc1nnc(S(N)(=O)=O)s1 [Acetazolamide]
- gametocyte viability (concentration: 1 µM): inactive: 86.4
- gametocyte viability (concentration: 10 µM): inactive: 87.1

SMILES: Clc1ccc2nsnc2c1NC1=NCCN1 [Tizanidine HCl]
- gametocyte viability (concentration: 1 µM): inactive: 93.4
- gametocyte viability (concentration: 10 µM): inactive: 98.4

SMILES: CCCCOc1cc(C(=O)OCCN(CC)CC)ccc1N [Benoxinate hydrochloride]
- gametocyte viability (concentration: 1 µM): inactive: 87
- gametocyte viability (concentration: 10 µM): inactive: 87.3

SMILES: Nc1nc(=O)n([C@@H]2CS[C@H](CO)O2)cc1F [(-)-Emtricitabine]
- gametocyte viability (concentration: 1 µM): inactive: 78.6
- gametocyte viability (concentration: 10 µM): inactive: 84.7

SMILES: COc1ccc(Cl)cc1C(=O)NCCc1ccc(S(=O)(=O)NC(=O)NC2CCCCC2)cc1 [Glibenclamide]
- gametocyte viability (concentration: 1 µM): inactive: 86.1
- gametocyte viability (concentration: 10 µM): inactive: 85.3

SMILES: CC#C[C@]1(O)CC[C@H]2[C@@H]3CCC4=CC(=O)CCC4=C3[C@@H](c3ccc(N(C)C)cc3)C[C@@]21C [Mifepristone]
- gametocyte viability (concentration: 1 µM): inactive: 83.1
- gametocyte viability (concentration: 10 µM): inactive: 83.2

SMILES: CCCCCCNC(=O)n1cc(F)c(=O)[nH]c1=O [Carmofur]
- gametocyte viability (concentration: 1 µM): inactive: 80.2
- gametocyte viability (concentration: 10 µM): inactive: 76.4

SMILES: CCCOc1ccccc1-c1nc2[nH]nnc2c(=O)[nH]1 [Zaprinast]
- gametocyte viability (concentration: 1 µM): inactive: 85.1
- gametocyte viability (concentration: 10 µM): inactive: 85.1

SMILES: CN1CCN2c3ncccc3Cc3ccccc3C2C1 (stereo unspecified) [Mirtazapine]
- gametocyte viability (concentration: 1 µM): inactive: 79.6
- gametocyte viability (concentration: 10 µM): inactive: 77.4

SMILES: CC(C)[C@H](N)C(=O)OCCOCn1cnc2c(=O)nc(N)[nH]c21 [Valacyclovir hydrochloride]
- gametocyte viability (concentration: 1 µM): inactive: 85.1
- gametocyte viability (concentration: 10 µM): inactive: 83.7

SMILES: Cc1cc(C)nc(NS(=O)(=O)c2ccc(N)cc2)n1 [Sulfamethazine sodium salt]
- gametocyte viability (concentration: 1 µM): inactive: 84.4
- gametocyte viability (concentration: 10 µM): inactive: 81

SMILES: CC1(C)O[C@@H]2C[C@H]3[C@@H]4C[C@H](F)C5=CC(=O)C=C[C@]5(C)[C@@]4(F)[C@@H](O)C[C@]3(C)[C@]2(C(=O)CO)O1 [Fluocinolone acetonide]
- gametocyte viability (concentration: 1 µM): inactive: 83.3
- gametocyte viability (concentration: 10 µM): inactive: 83.3

SMILES: COc1cc(NS(=O)(=O)c2ccc(N)cc2)ncn1 [Sulfamonomethoxine]
- gametocyte viability (concentration: 1 µM): inactive: 85.2
- gametocyte viability (concentration: 10 µM): inactive: 89.5

SMILES: COC(=O)N/N=C/c1c[n+]([O-])c2ccccc2[n+]1[O-] [Carbadox]
- gametocyte viability (concentration: 1 µM): inactive: 82
- gametocyte viability (concentration: 10 µM): inactive: 82.9

SMILES: CN(C(=O)CN(CCO)CC(=O)N(C)C(C)(C)Cc1ccccc1)C(C)(C)Cc1ccccc1 [Oxethazaine]
- gametocyte viability (concentration: 1 µM): inactive: 96.7
- gametocyte viability (concentration: 10 µM): inactive: 71.6

SMILES: CC(C(O)c1ccc(O)cc1)N1CCC(Cc2ccccc2)CC1 (stereo unspecified) [Ifenprodil tartrate]
- gametocyte viability (concentration: 1 µM): inactive: 81.9
- gametocyte viability (concentration: 10 µM): inactive: 79.7

SMILES: Cc1c(N)c(=O)n(-c2ccccc2)n1C [Ampyrone]
- gametocyte viability (concentration: 1 µM): inactive: 84.4
- gametocyte viability (concentration: 10 µM): inactive: 85.8

SMILES: NC[C@H]1O[C@H](O[C@H]2[C@H](O)[C@@H](O[C@H]3O[C@H](CO)[C@@H](O)[C@H](N)[C@H]3O)[C@H](N)C[C@@H]2N)[C@H](N)C[C@@H]1O [Tobramycin]
- gametocyte viability (concentration: 1 µM): inactive: 89.1
- gametocyte viability (concentration: 10 µM): inactive: 85

SMILES: C=CCOc1ccccc1OCC(O)CNC(C)C (stereo unspecified) [Oxprenolol hydrochloride]
- gametocyte viability (concentration: 1 µM): inactive: 97.4
- gametocyte viability (concentration: 10 µM): inactive: 93.4
